The other results are listed elsewhere or left out.
Tested on: PfHDP1 homeodomain (GST-tagged)
Test: gcPBM binding intensity (ln(normalized median fluorescence intensity)); higher = stronger DNA binding
Method in brief: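 An Agilent 4 × 180k array of primer-extended double-stranded 36-bp intergenic genomic probes, with negative controls, was incubated for 1 h with GST-tagged P. falciparum DNA-binding domains expressed in E. coli. Alexa488 anti-GST antibody detected bound protein, scanned at 488 nm. Binding intensity is the highest Masliner-normalised natural-log median intensity across replicate spots of either probe orientation.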

Sequence | gcPBM binding intensity (ln)
TGATTACATATGATGTGTACCTAATTTTGTTTACAC [XGTACX_site7032] | 6.33
TTTTAATATTTTGCCTGTACATAAAAGTGAGAAGAT [XGTACX_site2503] | 7
AAAACACGCGGACACACACACACACCCACCCATATA [CACACA_site8688] | 6.58
TTATATTTATTGATATGTACATATTATAATTAATTA [XGTACX_site586] | 6.62
TTACACATATTTTTAATTATTCTGAATTCAAAAAAA [CACACA_negctrl_site1706] | 6.18
GTAATATTAAAATATACACACATAGAATATATATAT [CACACA_site4391] | 8.2
ATAATCATAAAATAAACACACATATATAAATATATT [CACACA_site276] | 6.37
GTGTGGAGTTACAAAGAGGAGAACCTCACAGTAATC [CACACA_negctrl_site527] | 6.48
TTACTCTTTATATAATGTACATATATATATATATTA [XGTACX_site2624] | 6.74
AAATTCGTTATAAAAACATGCAACGATCAACATTGT [TGCATGCA_site844] | 6.4
TTTTTTATATTGTGATGTACAAATTTTAAAATGTAG [XGTACX_site1875] | 6.3
ATATATATATATATAATACACACTTATGAAATGTCT [CACACA_site1827] | 9.11
ATATAATGGCTAAATAGTACAATATAATATTTTTTA [XGTACX_site8922] | 6.14
ACACATGAATATTGTAGTACGGCAATTAATATAATA [XGTACX_site4589] | 6.48
TGGAATAATACGCGTACACACATATAAATATTAATA [CACACA_site6211] | 6.71
AGAAAGGAAAAAACCTCACACATGCTTTTAATAGTA [CACACA_site4602] | 6.04
CTATTCTATTTTTATTGTACATATATATAATTTGAA [XGTACX_site389] | 6.91
AAAAAAATATAAATACGTACATATATATATATATAT [XGTACX_site432] | 9.34
AAAAATTCATTTTTATGTACGTACAAATTCTTCGTT [XGTACX_site2471] | 6.32
AGTAAATTATATATCTGTACATATATATATGTGTAT [XGTACX_site5519] | 6.67
TTTTAAAAAAATATAATACACACCAAAAATATGCAC [CACACA_site2131] | 7.15
ACTATATATATAAGTGCATGTTCATTATACCTAAAG [TGCATGCA_site696] | 7.49
CTCACAAATGAATACACACAAACATATATATTTATA [CACACA_site1620] | 6.51

Sequence | gcPBM binding intensity (ln)
CCCACAGACGGACACACACACATATATATATATATA [CACACA_site4351] | 9.48
TATTTAAATTTGTATAATGGACGAATTATATAGAAA [GTGCAC_negctrl_site650] | 6.41
TTGAATTATAAGAATAAACACACAAGCTTAAAAAAA [CACACA_site8318] | 6.35
GAATTATAAATTATAGTGCATAAAATTATGGCATAA [GTGCAC_site9938] | 8.95
TCAAAACATTATTCCATACACACCATACTTTTTAAT [CACACA_site2770] | 7.14
CTGTAAAAAATATAAACACACATAGAAATATATAAA [CACACA_site340] | 6.62
CCTCATAAGTTCTTATGTACGTATTGTTCACCTTTA [XGTACX_site6640] | 6.42
TTTATTTGTGCATATACACACTTAAATATGTTTATT [CACACA_site7772] | 9.72
TTTAATTTTTTTTATAGTACATAAAAAATAAAAAAA [XGTACX_site5631] | 6.15
TACAACCTTATAATTAGTACTTAGTTATGCTGTAAA [XGTACX_site6052] | 6.28
ACATAAAATTGGAGCAAACACACAAGGTTGAAATTA [CACACA_site505] | 7.16
TTTGTTATGGTTTTCTCACACATATATATATATATA [CACACA_site4617] | 9.41
CCGATATAATGGAAAACACACAAAAGATATTTATAT [CACACA_site7293] | 6.56
ATTATAATACTTTGTATGCACTAATCAATTATTAAA | 7.89
AATAACCACGGACACACACACATATATATATATATA [CACACA_site5873] | 9.27
TTAAGAAACAAAGAAAGTACACAACATAATATAGAA [XGTACX_site477] | 6.79
TTAATAATAAAAAGGAGTACACTAATATACTATAAA [XGTACX_site2346] | 6.35
AATAAAATCATCTATACACACAAAAAAAATAAGAAA [CACACA_site2101] | 6.75
ATATAATATATATATAAACACACAAAAAAAATTATA [CACACA_site8434] | 6.92
TATATGGTATGTATTACACACATATCACATATATAT [CACACA_site3045] | 6.56
GGAATGGTACATGATACACACACGCACATATAAATA [CACACA_site7581] | 7.02
TGGTAAATTGAGAATCGTACATTAAAAAACATAAAA [XGTACX_site3253] | 6.61
ATTTATTAAAAGAAATGTACAGAAAATGTTTGGAAT [XGTACX_site7187] | 6.86

Sequence | gcPBM binding intensity (ln)
AAGAAAAAAAAGATAATAATAATAATAATAAAATGA [TGCATGCA_negctrl_site398] | 6.41
ATTTAATATCACAATATATTTTTTACCCTTATCAGC [CACACA_negctrl_site491] | 6.37
TTATGTTGTAAATGCACACATACAAATACATATACA [CACACA_site1368] | 10.3
TACAATATAAAATACACACGCACACCGAAAAAAAAA [CACACA_site5865] | 6.97
TTTTCTATATAGTGTTGTACATTATTGTGTAAAAAT [XGTACX_site3223] | 6.81
ATATTTTATACTTGCACACAAAATATATTAAAATGG [CACACA_site5139] | 9.24
ATAAAATTGGAGCAAACACACAAGGTTGAAATTAAC [CACACA_site506] | 7.79
GACTGAACAACATAATGTACATTTATAAGTATATAT [XGTACX_site3813] | 6.8
AGTAGTATGGAGAAAAGTACATAGTATCTGATAACC [XGTACX_site2040] | 6.79
AAAGAAAAAGAAAAAGAAAAAATAAAATAAAATAAA [CACACA_negctrl_site872] | 6.05
TATATATTATATATATGTACTTATTCATATATATAA [XGTACX_site3860] | 6.43
CTTTAATATATTTAAGTGCAAAACTAATATGTAAAG | 9.26
TATTTAAAAACAAAAAGTACTAATATATATTTATAC [XGTACX_site1422] | 6.64
AAAGAATTGTATAAAAGTACATATTTGTTTGTTTTA [XGTACX_site7380] | 5.92
TTTTTTTCATAAATTAGGTAATGTCGCAGGGGGACA [TGCATGCA_negctrl_site556] | 6.83
TAAAAAATAAAATACACACACATATATATATATATA [CACACA_site1323] | 9.49
AAAAAAATTAAAGATTGTACTTGATTTTTCATTTTA [XGTACX_site6685] | 6.19
GAGGGAAAAAATAATCGTACAAAGAAAAAAAAAAAT [XGTACX_site7361] | 6.72
TATATTCTTTTTTTAACACACAAAAAAAATAAAATA [CACACA_site1898] | 6.35
AAAAAATAAAAGTGGGGTACATGTCATTATGTGCAT [XGTACX_site3753] | 7.46
CAAAATATTATCATGATGCACTTTACACTCTAAGGT | 7.22
TCATTATATTATTCTTGTACTTATATCCTTTTTTGA [XGTACX_site5320] | 6.61
TAAAAGTTCACCTGTACACACATATATATCTGTACA [CACACA_site5019] | 6.79

Sequence | gcPBM binding intensity (ln)
TTTTCATTCTTTTCCTTTGATTTACAATAGTATATT [GTGCAC_negctrl_site687] | 6.87
GATCTTTCACATATATATATAAAGGATATTATGGTA [CACACA_negctrl_site522] | 6.36
AGTAGTCTGGAGAAAAGTACACAGTATCTGGTAGCT [XGTACX_site2544] | 6.04
TATAATAATCCACAAGCACACACACCCACATATATA [CACACA_site8343] | 6.94
AAATATTATTCATTTTGTACGTATAATTTTTAATGA [XGTACX_site3509] | 6.49
TTATTACACAAATGGTGTACTTTTGAGGAACCAAAA [XGTACX_site4279] | 6.3
ATTATATTATATTATACATGCATAATATTATATAAA [TGCATGCA_site647] | 6.24
AAATTAAATGTAAGCACACATAAATTATACGCATAT [CACACA_site3335] | 6.48
ACATTGAATAAATAATGTACATATATAATATATATT [XGTACX_site95] | 6.55
TTGCAGTATTTCGGAACACACAAACATAAATATGTA [CACACA_site5307] | 6.26
GTTTATTAGGAATTATGTACACAGTTTTATAAAGAA [XGTACX_site2994] | 6.79
AATATAATATATTGCACACAAAAAGTGAATTATTCT [CACACA_site1684] | 10.7
AAATAGTTGTTATGGGTGCAAACCACATATATATAA [GTGCAC_site9428] | 8.79
AATATATACATACATACATGCACATATATATATATA [TGCATGCA_site393] | 9.61
ATTATTTACCACAACACACAAATATTTACCAATCAT [CACACA_site5472] | 6.78
ATTTGTTTAAGTCACGAACACACATATATCATCAAT [CACACA_site985] | 6.53
AGGCCTTTTAGTATTTCACACACGTAAATGTGTATA [CACACA_site8284] | 6.43
CTTTGTGGTATAGATACACACTATATTAATATGAAC [CACACA_site7081] | 6.79
AAATAAAAAGGGTGCACACAAAAATATATATATATA [CACACA_site1728] | 10.4
TAAAAAAGAACAGAAACACACAAATAAAATAAAATT [CACACA_site1758] | 6.67

Source: the supplement of paper PMC11417369
